The whole screen tested about 410,000 compounds, of which about 5,000 (1.2%) were called active. The shares of active, inactive and inconclusive entries below differ from those in the screen. Calls follow the shape of the dose curve; as a rule, active = well fitted inhibition curve with a large enough effect; inconclusive = small, poorly fitted or top-dose-only effect; inactive = no such curve, though single readings can be large or run the other way. A potency beside an inconclusive call is a rough fit, not a confirmed value.
Experiment: qHTS for Inhibitors of TGF-b; also: nearly all actives have a fitted effect of over 65% in size
Settings: HepG2 CAGA-GFP TGF-b/SMAD3 reporter, GFP fluorescence, 18 h, TGF-beta stimulated, 500 pg/mL final; series mostly up to 46.1 µM
In short: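 Inhibition was scored as loss of TGF-beta-induced (500 pg/mL final, 18 hours, 37 degrees C) GFP in HEPG2 cells carrying a CAGA-GFP reporter, in DMEM with 1% FBS. Well GFP was summed per cell; Activity was normalised to unstimulated and stimulated DMSO wells, then concentration-response fitting.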
Potency is read from the fitted curve at half-maximal effect; tags tell the direction and shape of the fitted curve.

| Structure (SMILES) | Potency |
| --- | --- |
| CC(c1ccccc1)n1cc2c(c1-c1ccccc1Br)c(=O)n(C)c(=O)n2C (stereo not given) | inconclusive: 14.1 µM [inhibitor, single point] |
| Cc1ccc(Cl)cc1N1CCN(C(=O)c2c(C)oc3ncnc(N4CCCCC4)c23)CC1 | inconclusive: 11.2 µM [inhibitor, partial curve, poor fit] |
| CCc1cc(C(=O)Nc2sc(C)c(CC)c2C#N)no1 | inactive |
| CCCN(CCC)CCCNC(=O)c1cc2cc3ccc(OC)cc3nc2o1 | inactive |
| CCCCOc1cccc(C(=O)Nc2cc(NC(=O)c3ccco3)ccc2OC)c1 | inconclusive: 20 µM [inhibitor, single point] |
| CCc1ccc(CN2CCc3nc(N4CCN(c5ccccc5F)CC4)ncc3C2)cc1 | inactive |
| COc1ccccc1N(Cc1cc(=O)[nH]c2ccccc12)C(=O)c1ccc([N+](=O)[O-])cc1 | inconclusive: 6.31 µM [inhibitor, single point] |
| Cc1ccc(Cc2cc(-c3ccc(C)cc3)n[nH]c2=O)cc1 | inconclusive: 12.6 µM [inhibitor, partial curve, poor fit] |
| CN(Cc1c(C(=O)N/N=C/c2ccccc2O)nnn1-c1nonc1N)C1CCCCC1 | inconclusive: 35.5 µM [inhibitor, single point] |
| CCC(CC)C(=O)Nc1cc(C)c2c(=O)oc3ccccc3c2n1 | inactive |
| Cc1cc(C(=O)CSc2nnc(-c3ccccc3)n2Cc2ccc3c(c2)OCO3)c(C)n1C | inconclusive: 35.5 µM [inhibitor, single point] |
| CCc1ccc([C@H]2C(C(=O)O)=C[C@@H](CC3CCCC3)N2S(=O)(=O)c2ccc(C)cc2)cc1 | inconclusive: 35.5 µM [inhibitor, single point] |
| CCCOc1ccc(/C=N/NC(=S)Nc2ccccc2[N+](=O)[O-])c(O)c1 | inconclusive: 1.58 µM [inhibitor, partial curve, poor fit] |
| N#Cc1ncn(C2OC(CO)C(O)C2O)c1N (stereo not given) | inactive |
| COc1cccc(-c2cc3nc4c(c(NCC(C)(C)CN(C)C)n3n2)CCCC4)c1 | inconclusive: 35.5 µM [inhibitor, single point] |
| Cc1cc(C(O)c2ncc(-c3cccc4ccccc34)[nH]2)ccc1F (stereo not given) | inconclusive: 4.47 µM [inhibitor, single point] |
| COc1ccc(Cl)cc1NC(=O)CSc1nc2[nH]ncc2c(=O)[nH]1 | inactive |
| Cc1ccc(C2=NN(CC(=O)NCc3ccccn3)C(=O)CC2)cc1 | inactive |
| COc1ccccc1NC(=O)CCc1nc(-c2cccs2)no1 | inactive |
| O=C(CCC(=O)N1CCN(c2ccc(Cl)c(Cl)c2)CC1)c1ccccc1 | inconclusive: 35.5 µM [inhibitor, single point] |
| COCCN(Cc1ccccc1)C(=O)c1cc(-c2ccc(OC)c(OC)c2)nc2ccccc12 | inactive |
| COc1ccccc1/C=C1\C(=O)Nc2ccccc21 | inconclusive: 11.2 µM [inhibitor, partial curve, poor fit] |
| CCn1c2ccccc2c2cc(NC(=O)COC(=O)c3cc(OC)c(OC)cc3OC)ccc21 | inconclusive: 5.62 µM [inhibitor, single point] |

| Structure (SMILES) | Potency |
| --- | --- |
| Cc1cc(C)c(C(=O)NC2CCCc3c2cnn3-c2ccc(C)c(C)c2)c(=O)[nH]1 (stereo not given) | inactive |
| Cc1nn(Cc2ccccc2)c(C)c1NC(=O)c1noc2c1CCc1ccccc1-2 | inconclusive: 25.1 µM [inhibitor, single point] |
| CCOC(=O)C1CCCN(C(=O)Cn2ncc3c(C)n(Cc4ccccc4Cl)c(C)c3c2=O)C1 (stereo not given) | inconclusive: 35.5 µM [inhibitor, single point] |
| CCCC(=O)NCCCc1nc2ccccc2[nH]1 | inconclusive: 2.82 µM [inhibitor, single point] |
| CCCc1nc2ccccc2n1CC(O)COc1ccc(C(=O)OC)cc1 (stereo not given) | inconclusive: 10 µM [inhibitor, single point] |
| COc1ccc(-n2c(SCC(=O)N3CCc4ccccc43)nc3c([nH]c4ccccc43)c2=O)cc1 | inactive |
| CSc1nc(O)cc(=O)n1-c1ccc(F)cc1 | inactive |
| Cc1ccc(NC(=O)Cn2cnc([N+](=O)[O-])c2)cc1C | inactive |
| CCOC(=O)c1ccc(NC(=O)c2nc[nH]c2C(=O)NCC(=O)OC(C)(C)C)cc1 | inconclusive: 14.1 µM [inhibitor, single point] |
| CCOC(=O)c1cc2c(ccn2-c2ccc(F)cc2)n1CC(=O)N(CC)CC | inactive |
| COc1cccc(CNC(=O)c2ccc(N3CCOCC3)c([N+](=O)[O-])c2)c1 | inactive |
| Cc1cc(C)cc(NC(=O)C(OC(=O)c2ccc(O)cc2)c2ccccc2)c1 (stereo not given) | inconclusive: 35.5 µM [inhibitor, single point] |
| Cc1ccc(CNc2oc(-c3ccc(COc4ccc(C)cc4)o3)nc2C#N)cc1 | inconclusive: 10 µM [inhibitor, partial curve, poor fit] |
| CC(=O)CSc1ncnc2nc[nH]c12 | inactive |
| CCOc1ccc(C(C)=O)cc1COc1ccc(-n2cnnn2)cc1 | inconclusive: 1.26 µM [inhibitor, full curve, poor fit] |
| O=C(N/N=C/c1ccc(-n2ccnc2)cc1)c1cccs1 | inactive |
| COCCNC(=S)N/N=C(\C)c1ccc2cc(OC)ccc2c1 | inconclusive: 15.8 µM [inhibitor, single point] |
| Cc1ccc2nc(/C(C#N)=C\c3cc(C)n(-c4cccc([N+](=O)[O-])c4)c3C)[nH]c2c1 | inactive |
| C/C=C(/CCC1NCCc2c1[nH]c1ccccc21)[Si](C)(C)C (stereo not given) | inconclusive: 35.5 µM [inhibitor, single point] |
| CCOC(=O)c1cc(-c2cccs2)nc2c1c(C)nn2-c1ccccn1 | inconclusive: 22.4 µM [inhibitor, single point] |
| COC(=O)Nc1ccc(SCC(=O)c2cccc([N+](=O)[O-])c2)cc1 | inconclusive: 15.8 µM [inhibitor, single point] |
| CCOc1ccccc1C1CC(=O)Nc2cc(OC)c(OC)cc21 (stereo not given) | inactive |

Source: PubChem BioAssay AID588855 (National Center for Advancing Translational Sciences (NCATS), 2011)
